Laboratory results taken from the RNAGym collection of RNA variant scans (doi:10.7554/elife.90254).
The source gives no read counts; variants with many changes may rest on few reads.

B1: OR4K15 (parent)
chain: GUUAACGGUCAUAGGCCAUGGAAACUAGGAGCACCAUUUCGCUGCCAGUGAAGAAAUGAACAAAGAAAAUCUGGGCCAGGCAGGCAUCAAAAGAAAUAGUCUUGCGCUCAACCAGAAAGUCUGUAAUCAUUUUAAGGGUA

Variants of: B1
Assay: self-cleavage, relative activity (ratio to wild type); higher = more cleavage; in vitro, sequencing; the parent is a self-cleaving ribozyme

| Variant | self-cleavage |
| --- | --- |
| A23G A78U C105A | 0.01 |
| A23G A64U G106C | 0.06 |
| A23G U38C U139C | 0.98 |
| A22G U49C A95G G138C | 1.42 |
| A22G U72C A117G | 0.17 |
| A23G A56G A66G U70C | 0.67 |
| A23G G44A A96G | 1.28 |
| A23G A60G U87C U103C | 0.47 |
| A23G U37C U38A U39C A82C A92G U139C | 0.1 |
| A23G A59G A60G | 0.62 |
| A23G A27G A82G A95G | 0.85 |
| A23G A36G U39C | 1.72 |
| A22G U39C U43C A62U | 0.74 |
| A23G A30G U49C A52G U57C U70C | 0.37 |
| A22G U97C U108C U122C | 0.01 |
| A22U U43C U120A | 1.32 |
| A22U A51G U108G | 0.02 |
| A23G A33U U57C U122C U139C | 0.44 |
| A22U U39G A62G U70C A86G A111G | 0 |
| A23G A55G U57C A98G | 0.39 |
| A22U U37C A68G U97A | 1.78 |
| A23G A24G U130C U131C | 0.36 |
| A23G A36G A82G A96G A140G | 0.9 |
| A22G C61U A89G | 1.05 |

| Variant | self-cleavage |
| --- | --- |
| A23G A51G G58A | 0.7 |
| A23G A64U U122C | 0.57 |
| A23G A63G U100A | 1.17 |
| A23G A68G A69G A118U | 0.58 |
| A22U A24G A92G U122A | 1.62 |
| A22U A63G U102A | 1.69 |
| A23G A117G U122C U127A U130A | 1.07 |
| A23C A54U U122C | 0.88 |
| A23G C34U A89G A116G U127C | 0.05 |
| A23G A27G U37C A55G A114U A116G | 0 |
| A23G U57C A111G A129G | 0.01 |
| A23G U39C U122C | 0.94 |
| A22G U43A A94U | 1.38 |
| A22U A52G A56G | 1.57 |
| A23G A63C U72A A117G | 0.77 |
| A22G U57A A69G | 0.82 |
| A22U U87C A91U U102A U103A | 0.09 |
| A22U U39C A89G U127G | 0 |
| A23G A68G A78C U132C U139A | 0.29 |
| A22U A47U A126G | 1.03 |
| A23G A55U A91G A125G | 0.21 |
| A23G A60G A62U A90G U103C U120G U122C U132C | 0 |
| A22G U43G A60G U108C | 0.02 |
| A22G U37C A110U U130C A134G | 0.44 |

| Variant | self-cleavage |
| --- | --- |
| A23G A82G C105A | 0.08 |
| A22U A30G U120C A125G | 0.1 |
| A22U A36G A54G A64G A125G | 0.67 |
| A23G A27U A59G U122C | 1.83 |
| A23G U49C U57G A86G | 0.67 |
| A23G G65U A117G | 1.94 |
| A22G U26C A33G | 1.24 |
| A23G A36G A51G U87C | 0.53 |
| A23G A59G A111G | 0.05 |
| A23G A59U A62U U72A A94G U103C A126G | 0.07 |
| A23G A59G A95U U100C | 1.6 |
| A23G U38C C45U U87C | 0.7 |
| A23G A54U A69G G93A A110G | 0.03 |
| A22G U43A A86U | 1.64 |
| A23G C25G A51G A82G A92G | 0.36 |
| A23G A64G A89U U97C | 1.6 |
| A23G U43C A51G A66U A69G | 1.18 |
| A23G A63G A78G A90G | 0.36 |
| A22U U37C U102C | 2.25 |
| A22U U37C A52G | 0.65 |
| A23G A36G A52G U57C A67G U103A | 1 |
| A23G U49C A96G | 2 |
| A23G A59U A64G U102C | 1.57 |
| A23G A24U U39C U57C A94G A118U | 0.52 |

| Variant | self-cleavage |
| --- | --- |
| A23G A27U G73A C81U G83A | 0.32 |
| A23G U39C A52G A66G A78U A98G U130C | 0.25 |
| A23G G28A G75A A92G | 0.15 |
| A23G U37C A55G | 1.66 |
| A23G A92G U103C A111G A114G | 0.04 |
| A23G A47U A89G U139C | 0.77 |
| A23G A89G A90G | 1.13 |
| A23G C32U A52G | 0.56 |
| A23G U37C A54G U72C A82G | 0.16 |
| A22G U120A A126G | 0.93 |
| A22G U38G U120C | 1.58 |
| A23G A56G A78U | 0.65 |
| A23G A94U U103A G104A U130C | 0.02 |
| A22U U37C A47G A64G U131C | 0.47 |
| A22U A47U A86G A94G A111G | 0.17 |
| A23G A114U A116G | 0.02 |
| A23G G41U U122G | 1.82 |
| A22U A27G A30G A62U U133C | 0.66 |
| A22G U100C U103C | 0.86 |
| A22U A55G A66G A78C A125G | 0.05 |
| A23G U38C A54G A94G U122C U127C | 0.54 |
| A23G A27G U70G A135G G137U | 0.98 |
| A23G A86G U120C U133C | 1.84 |
| A23G A27U A82C A117C | 0.07 |

| Variant | self-cleavage |
| --- | --- |
| A23G A69U A91G | 1.17 |
| A22G U37C U39A | 1.15 |
| A23G A36U A89G | 0.82 |
| A23G A62C A68G | 1.75 |
| A23G C46U A51U A55G U100A | 0.61 |
| A23G A67G A95C C112G U120C | 0.01 |
| A22U A55G A64G U103A | 0.74 |
| A23C A63G A68C | 2.18 |
| A23G A52G A111G | 0.05 |
| A23G A62G A68G A125G U132C | 0.24 |
| A23G A52G U72C A78G U102A | 0.11 |
| A22G U39C A62C A117G | 1.57 |
| A23G G84A A94C A134U | 0 |
| A23G A94G A129G | 0.63 |
| A22G U131C U133C | 0.93 |
| A22U A95G A98C | 2.53 |
| A23G A33U A114C | 0.07 |
| A22G U100C A129G | 1.85 |
| A23G A62G A64G C81A | 0.33 |
| A23G A60G A90G | 0.45 |
| A22U A23G A111U A114U U122A A140G | 0 |
| A22G U39C U57C | 1.36 |
| A23G A36U U57A U120C | 1.02 |
| A22G U37C A96G | 1.01 |

| Variant | self-cleavage |
| --- | --- |
| A23G A96G U102C A114G | 0.67 |
| A23G A55C U57C U87C A125G U131C | 0.13 |
| A22U A36C U103C | 1.38 |
| A23G U43A A118G U127C | 0.17 |
| A23G A66G G80U U100C U124C | 0.11 |
| A23G G44A A126G | 0.45 |
| A23G A33G A78G C112U | 0.03 |
| A22G U43C A52G G74U | 0.19 |
| A23G U43C A64G A90G | 0.5 |
| A23G U37C A129G | 1.07 |
| A23G A91U U102C A114G | 0.69 |
| A23G G48U A63G A86U | 1.4 |
| A22G U38C U49C A62G U72C | 0.16 |
| A23G A36G A92U A111G | 0.02 |
| A23G A63U A126G | 1.08 |
| A22G U103C U108A A140G | 0 |
| A23G A51G U57A U108G A110G | 0.02 |
| A22U A33U A110U | 1.28 |
| A22G G74U A92G U102A A134G | 0.04 |
| A23C U57C A126G | 1.1 |
| A23G U26A U127A | 1.09 |
| A22G U43A A60G G106U | 0.04 |
| A23G U26A A135U | 1.47 |
| A22U U26A A33U | 1.23 |

| Variant | self-cleavage |
| --- | --- |
| A22G U43C U70A | 1.23 |
| A23G A55U U103C | 0.34 |
| A22G U37C A56G A90G C105U | 0.03 |
| A23G G53A A91U | 1.49 |
| A23G A59U U100A A116G | 0.08 |
| A22G U37C U139C | 1.59 |
| A23C A56U A59G U108C A118G | 0.03 |
| A22G U49A A66U A98U | 1.09 |
| A22G U103A U130C | 0.51 |
| A22G C113U U132C | 0.04 |
| A22G U124C U130C A135G | 0.05 |
| A22U A68G U108A A116G | 0.02 |
| A23G A27U C40A A47G U122C | 1.32 |
| A23G A36C A54G | 0.77 |
| A23G A47U A66U U108C U139C | 0.02 |
| A22U A33U A63G A95G A96G | 1.58 |
| A23G G74A A86G A91G A95G | 0.18 |
| A22U A51U A96G A110G A135G | 0.17 |
| A22G U39C A55G U72C A82G G84A | 0.27 |
| A23G A64G U70C | 0.98 |
| A22G U38A A52G A69G A91G A96G A140G | 0.58 |
| A23G U57A U97C U103C U132C | 0.28 |
| A23G U43A C61U A111U | 0.17 |
